Reference: PubChem BioAssay AID463173 (ICCB-Longwood Screening Facility, Harvard Medical School, 2010)
Among all 52,000 compounds or so, about 1,700 (3.3%) were called active. Rule as the data show it: active = survival mostly below about 52% (no sharp cut-off); inactive = mostly above about 56%. The list shows a part of the results.

test system: Wild type; test: S. aureus survival, RN4220 and DeltatarO strains – OD600, teichoic acid synthesis inhibitors, primary screen (AID 463173); settings: S. aureus RN4220 wild type/DeltatarO growth, OD600, 18 h, stronger effect = lower value, screened at 18.75 µg/mL (by protocol)

Row | SMILES | survival
1 | Cc1ccc(C)c(S(=O)(=O)c2nnn3c2nc(Nc2ccc(C)c(C)c2)c2ccccc23)c1 | inactive: 115%
2 | N=C1CNc2ccccc2C(=O)O1 | inactive: 98%
3 | COc1ccc(-c2nnn(CC(=O)N(CC3CCCO3)C(C(=O)NC3CCCCC3)c3cccs3)n2)cc1 (centres undefined) | inactive: 103%
4 | COc1cccc(NC(=O)CCN2CCN(c3ccccc3)CC2)c1 | inactive: 70%
5 | COc1cccc(C(=O)NCC(c2ccc(N(C)C)cc2)N2CCc3ccccc32)c1 (centres undefined) | inactive: 148%
6 | CCc1ccccc1NC(=O)Cn1nnc(-c2nc(-c3ccc(C)cc3)no2)c1N | inactive: 63%
7 | Cc1ccc2c(c1)sc1nc(-c3cc4ccccc4oc3=O)cn12 | inactive: 76%
8 | CCOC(=O)c1ccccc1NC(=O)CN1C(=O)CC(c2ccco2)Sc2ccccc21 (centres undefined) | inactive: 79%
9 | Cc1ccc(C(=O)Nc2ccc(C(=O)OCc3cc(=O)n4nc(C5CC5)sc4n3)cc2)cc1 | inactive: 84%
10 | Cc1oc(-c2ccc(Cl)cc2)nc1Cn1c(=O)cc(C)c2c(C)nn(-c3cccc(F)c3)c21 | inactive: 72%
11 | COc1ccc(N2CCN(c3c4c(nc5nncn35)CCC4)CC2)cc1 | inactive: 82%
12 | CCn1cc(C(=O)N2CCN(c3ccc(F)cc3)CC2)c(=O)c2cc(S(=O)(=O)N3CCOCC3)ccc21 | inactive: 90%
13 | COc1ccc(CCNC(=O)c2cc(Nc3cc(C)cc(C)c3)nc3ccccc23)cc1OC | inactive: 131%
14 | CCc1ccccc1NC(=O)CSc1ncc(S(=O)(=O)c2ccccc2)c(N)n1 | inactive: 71%
15 | CCOc1cc(CNC(=O)CCCn2c(=O)c3cccn3c3cccnc32)cc(OCC)c1OCC | inactive: 78%
16 | CC(=O)Nc1cccc(NC(=O)CSc2cn(CC(=O)N(C(C)C)C(C)C)c3ccccc23)c1 | inactive: 94%
17 | CCCN(CCC)S(=O)(=O)c1ccc(C)cc1 | inactive: 107%
18 | Cc1c(Cl)cccc1Nc1nn2c(=O)c3ccc(C(=O)NCCc4ccccc4)cc3nc2s1 | inactive: 120%
19 | CCN(c1cccc(C)c1)S(=O)(=O)c1ccc2c(c1)NC(=O)CCS2 | inactive: 71%
20 | O=C(COCc1cc(-c2cccs2)on1)Nc1cccc(Cl)c1Cl | inactive: 59%
21 | CCOc1ccc(NC(=O)c2cc3c(n(-c4ccc(OC)cc4)c2=O)CC(C)(C)CC3=O)cc1 | inactive: 73%
22 | COc1ccccc1Cn1c(CNS(=O)(=O)c2ccccc2Cl)nc2cccnc21 | inactive: 63%
23 | CC(=O)c1cccc(NC(=O)c2cccn2-c2nnc(N3CCCCC3)s2)c1 | inactive: 83%

Row | SMILES | survival
24 | CCCC(C)C(=O)Nc1nc2ccccc2s1 (centres undefined) | inactive: 120%
25 | O=C(COc1ccc(S(=O)(=O)NC2CCCCC2)cc1Cl)NCc1ccccn1 | inactive: 93%
26 | O=C(NC1CC(=O)N(c2ccccc2)C1)c1ccc(Br)o1 (centres undefined) | inactive: 76%
27 | COc1ccc2cc(C#N)c(SCC(=O)N3c4ccccc4CC3C)nc2c1 (centres undefined) | inactive: 116%
28 | O=C(NCCCN1CCN(c2cccc(Cl)c2)CC1)Nc1ccccc1C(F)(F)F | inactive: 80%
29 | COc1cccc(CNC(=O)C2CCN(c3nn4c(=O)cc(C)nc4s3)CC2)c1 | inactive: 84%
30 | Cc1cccc(N(CC(=O)NCCSCc2ccc(Cl)cc2)S(C)(=O)=O)c1C | inactive: 56%
31 | NC(=O)CCc1c[nH]c2ccccc12 | inactive: 104%
32 | CCOC(=O)Cn1c(=O)oc2cc(S(=O)(=O)N3CCN(c4ccccc4F)CC3)ccc21 | inactive: 84%
33 | COc1ccc(NC(=O)c2nnn(Cc3nc(-c4cc(OC)c(OC)c(OC)c4)oc3C)c2C)cc1 | inactive: 72%
34 | CCN(CC)C(=O)Cn1cc(SCC(=O)Nc2ccccc2F)c2ccccc21 | inactive: 112%
35 | CCOC(=O)c1ccc2c(c1)N(CC(=O)Nc1ccc(C)cc1C)C(=O)c1ccccc1S2 | inactive: 121%
36 | O=C(c1ccc2c(c1)N(Cc1ccc(Cl)cc1)C(=O)c1ccccc1S2=O)N1CCN(c2ccccc2F)CC1 (centres undefined) | inactive: 86%
37 | COc1ccc(-c2nc(C(N)=O)c3c(n2)n(-c2ccccc2OC)c(=O)n3C)c(OC)c1 | inactive: 99%
38 | CC(C)NC(=O)CC(=O)Nc1ccc2nc3n(c(=O)c2c1)CCCCC3 | inactive: 75%
39 | O=C(NC1CCCCCC1)c1cc2c(Cl)nc3ccccc3c2s1 | inactive: 123%
40 | CCOc1ccccc1NC(=O)C(NS(=O)(=O)c1ccc2c(c1)CCC(=O)N2)c1ccccc1 (centres undefined) | inactive: 76%
41 | CSc1cccc(NC(=O)C2CCN(c3ncnc4c3nc3n4CCCCC3)CC2)c1 | inactive: 89%
42 | O=C(c1ccc(F)cc1)N1CCC(c2nc3ccccc3o2)CC1 | inactive: 81%
43 | O=C(O)c1cccc2cc[nH]c12 | inactive: 102%
44 | O=C(CCC(=O)N1CC2CCCN2c2ccccc21)NCc1ccccc1 (centres undefined) | inactive: 88%
45 | COc1ccc(CNC(=O)c2ccc3c(c2)N(C)C(=O)C2CCCCN32)cc1OC (centres undefined) | inactive: 59%
46 | CC(C)(C)c1ccc(Oc2nc3ccccn3c(=O)c2/C=C(\C#N)c2nc3ccccc3[nH]2)cc1 | inactive: 82%

Row | SMILES | survival
47 | CCOc1ccc(CC(=O)NCCc2csc(-c3ccc(C(F)(F)F)cc3)n2)cc1 | inactive: 90%
48 | Cc1nn(-c2ccccc2)c(=O)c2ccccc12 | inactive: 98%
49 | Cc1nn(C(=O)COc2ccccc2)c(C)c1Sc1ccccc1 | inactive: 94%
50 | CCCCOc1ccc(C(=O)N2CCC(c3nc4ccccc4o3)CC2)cc1 | inactive: 79%
51 | CCOC(=O)c1ccc(NC(=O)C2=C(C)Nc3nc(SCc4ccc(Cl)cc4)nn3C2c2ccc(C)cc2)cc1 (centres undefined) | inactive: 86%
52 | COc1ccc(OC)c(NC(=O)CSc2nc(-c3ccccc3C)nc3cc(=O)[nH]n23)c1 | inactive: 60%
53 | COC(=O)c1sc2cccc(F)c2c1S(=O)(=O)N1CCN(c2ccccc2OC)CC1 | inactive: 47%
54 | CC1CCN(C(=O)CN2CCSc3ccccc32)CC1 | inactive: 73%
55 | CC(NC(=O)c1nn(C)c2c1CSc1ccccc1-2)c1ccccc1 (centres undefined) | inactive: 87%
56 | CCN(CC)c1ccc(C(=O)NCCN)cc1 | inactive: 106%
57 | O=C(Nc1ccc(SC(F)F)cc1)c1cc(-c2cccs2)on1 | inactive: 91%
58 | CCOc1ccc(C(=O)Nc2nnc(S(=O)(=O)N(CC)c3ccccc3C)s2)cc1 | inactive: 72%
59 | CC(=O)c1cccc(NC(=O)CCCN2C(=O)COc3ccc(C)cc32)c1 | inactive: 124%
60 | O=C(NCCc1ccccc1)c1ccc2c(c1)CCN2S(=O)(=O)c1ccc(Br)cc1 | inactive: 90%
61 | Cc1ccc(-c2cc(NC(=O)C(C)Oc3ccc(C)c(C)c3)on2)cc1 (centres undefined) | inactive: 123%
62 | Cc1[nH]c2ccccc2c1/C=N\NC(=O)Cn1nnc(-c2ccccc2)n1 | inactive: 103%
63 | COc1ccc(CNc2ccc3cc(S(=O)(=O)N4CCCCC4)ccc3n2)cc1 | inactive: 63%
64 | Cc1ccc(C)c(NC(=O)CN2C(=O)CSc3nc(C)cc(C)c32)c1 | inactive: 81%
65 | O=C(Cc1ccccc1)Nc1c(C(=O)N2CCN(c3ccc(F)cc3)CC2)oc2ccccc12 | inactive: 22%
66 | COc1ccc(N2CC(c3nc(-c4cc(OC)c(OC)c(OC)c4)no3)CC2=O)cc1Cl (centres undefined) | inactive: 128%
67 | O=C(CCS(=O)(=O)c1cccs1)Nc1ccc(C(=O)Nc2cccc(Cl)c2)cc1 | inactive: 89%
68 | COc1cc(OC)cc(C(=O)N2CCC(c3ccncc3)CC2)c1 | inactive: 69%
69 | CCC(=O)N1CCCc2cc(S(=O)(=O)N3CCC(C(=O)Nc4ccc(F)c(F)c4)CC3)ccc21 | inactive: 135%

Row | SMILES | survival
70 | CCNc1nc2c(c(=O)[nH]c(=O)n2C)n1CC(O)COc1ccc(Cl)cc1Cl (centres undefined) | inactive: 160%
71 | Cc1cc(C)c2c(=O)c3c(oc2c1)C(=O)N(Cc1ccc(F)cc1)C3c1cccc(O)c1 (centres undefined) | inactive: 64%
72 | CC(C)(C)CC(=O)Nc1nnc2n1CCS2 | inactive: 92%
73 | COc1cccc(NC(=O)CN2CCCN(S(=O)(=O)c3ccc(Br)cc3)CC2)c1 | inactive: 66%
74 | COc1ccc(Cn2ccnc2SCC(=O)Nc2ccc(C)cc2C)cc1 | inactive: 68%
75 | Cc1ccc(CNC(=O)CN(c2ccc(C(C)C)cc2)S(=O)(=O)c2c(C)n[nH]c2C)cc1 | inactive: 72%
76 | COc1ccccc1CNC(=O)CN1C(=O)CSc2c1c(C)nn2-c1ccccc1 | inactive: 70%
77 | O=C(NCCSCc1c(F)cccc1Cl)C1CCN(S(=O)(=O)Cc2ccccc2)CC1 | inactive: 87%
78 | O=C(COc1ccc(Cl)cc1)Nc1ccccc1C(=O)OCc1cc(=O)n2ccsc2n1 | inactive: 76%
79 | CCCC(=O)NCC(c1ccc2c(c1)OCO2)N1CCOCC1 (centres undefined) | inactive: 83%
80 | CC(=O)c1ccc(NS(=O)(=O)c2cc3[nH]c(=O)c(=O)[nH]c3cc2C)cc1 | inactive: 131%
81 | COc1ccc(S(=O)(=O)NCCc2nnc3ccc(SCC(=O)Nc4ccc(C(F)(F)F)cc4)nn23)cc1 | inactive: 87%
82 | Cc1ccc(C)c(N2CCN(C(=O)Cn3ncc4c(=O)oc5ccc(C)cc5c43)CC2)c1 | inactive: 79%
83 | CCOc1ccccc1CNc1ncnc2c1nc1n2CCCC1 | inactive: 79%
84 | CSc1ccc(CCNC(=O)CCc2c(C)nc3c(-c4ccccc4)c(C)nn3c2C)cc1 | inactive: 74%
85 | Cc1ccccc1Cn1nc(C)c(NC(=O)c2cc(-c3ccc(F)cc3)on2)c1C | inactive: 79%
86 | CCCn1c(=N)c(C(=O)NCc2cccnc2)cc2c(=O)n3cc(C)ccc3nc21 | inactive: 84%
87 | COc1cccc(/C=C/c2nc(C#N)c(N3CCCCC3)o2)c1 | inactive: 67%
88 | O=C(c1cnc2cc(-c3ccccc3)nn2c1)c1cc([N+](=O)[O-])ccc1O | active: 19%
89 | CC1(N2CCOCC2)CC(=O)N(c2ccccc2)O1 (centres undefined) | inactive: 112%
